The subject of assay [1] is HSkMC (human skeletal muscle cells). Put plainly: cytotoxicity call (relative viability < 0.9). The settings on record: 10 µM.
Assay [2] relates to HepG2. Put plainly: cytotoxicity call (relative viability < 0.9). To be noted: 10 µM.
The subject of assay [3] is S. aureus RN4220. Put plainly: growth inhibition call (relative growth <= 0.2). To be noted: 50 µM.

The other results are listed elsewhere or left out.

In the case of `C[C@@H]1CN([C@H](C)CO)C(=O)Cc2cc(NS(=O)(=O)c3ccc(Cl)cc3)ccc2O[C@@H]1CN(C)S(=O)(=O)c1cn(C)cn1`, the cytotoxicity call in assay [1] and in assay [2] was “inactive” throughout. Also, in assay [3], the growth inhibition call was “inactive”.

On to `C[C@H](CO)N1C[C@H](C)[C@H](CN(C)Cc2ccc(C(=O)O)cc2)Oc2ccc(NC(=O)C3CC3)cc2CC1=O`, for which the cytotoxicity call in assay [1] and in assay [2] was “inactive” each time. In addition, the growth inhibition call in assay [3] is “inactive”.

Turning to `COc1ccc(S(=O)(=O)N(C)C[C@H]2Oc3ccc(NC(=O)C4CC4)cc3C(=O)N([C@@H](C)CO)C[C@H]2C)cc1`, the cytotoxicity call in assay [1] and in assay [2] was “inactive” each time. For the same compound, the growth inhibition call in assay [3] is “inactive”.

In the case of `CC(CCC(=O)O)C1CCC2C3C(=O)CC4CC(=O)CCC4(C)C3CC(=O)C12C` (stereo unspecified), the cytotoxicity call in assay [1] and in assay [2] was “inactive” in each case. Further, in assay [3], the growth inhibition call was “inactive”.

For `Cc1ccc(S(=O)(=O)N(C)C[C@H]2Oc3ccc(NC(=O)CCN4CCOCC4)cc3C(=O)N([C@@H](C)CO)C[C@@H]2C)cc1`, in assay [1], the cytotoxicity call was “inactive”. The cytotoxicity call in assay [2] was “active”. Moreover, in assay [3], the growth inhibition call is “inactive”.

In the case of `COc1ccc2c3c([nH]c2c1)[C@H](CO)N(C[C@]13CCN(CC1)C(=O)Nc1ccc2c(c1)OCO2)C(=O)Nc1ccc(cc1)F`, the cytotoxicity call in assay [1] and in assay [2] was “inactive” each time. Also, the growth inhibition call in assay [3] was “inactive”.

`C[C@H](CO)N1C[C@H](C)[C@@H](CN(C)Cc2ccc(C(F)(F)F)cc2)Oc2ccc(NC(=O)Nc3ccc(F)cc3)cc2C1=O`: the cytotoxicity call in assay [1] and in assay [2] was “active” in each case. In addition, the growth inhibition call in assay [3] is “inactive”.

For the compound `Cc1cc(C(=O)Nc2cccc3c2O[C@H](CN(C)Cc2ccc(Oc4ccccc4)cc2)[C@@H](C)CN([C@H](C)CO)C3=O)n(C)n1`, the cytotoxicity call in assay [1] was “inactive”. In assay [2], the cytotoxicity call is “active”. Also, the growth inhibition call in assay [3] was “inactive”.

With `C[C@H](CO)N1C[C@H](C)[C@@H](CN(C)S(C)(=O)=O)Oc2cc(-c3cccc(F)c3)ccc2S1(=O)=O`, the cytotoxicity call in assay [1] and in assay [2] was “inactive” in each case. Further, in assay [3], the growth inhibition call was “inactive”.

`Cc1noc(C)c1NC(=O)Nc1cccc2c1O[C@@H](CN(C)Cc1ccc(C(F)(F)F)cc1)[C@H](C)CN([C@H](C)CO)C2=O`: the cytotoxicity call in assay [1] and in assay [2] was “inactive” each time. In assay [3], the growth inhibition call is “inactive”.

In the case of `CNCc1nc2ccsc2c(=O)[nH]1`, the cytotoxicity call in assay [1] and in assay [2] was “inactive” in each case. Further, the growth inhibition call in assay [3] is “inactive”.

Regarding `C[C@@H]1CN([C@@H](C)CO)C(=O)c2cccc(NS(C)(=O)=O)c2O[C@H]1CN(C)Cc1ccc(C(=O)Nc2ccccc2N)cc1`, the cytotoxicity call in assay [1] and in assay [2] was “inactive” each time. Besides, in assay [3], the growth inhibition call is “inactive”.

Source of the values: the antibiotic and cytotoxicity screens of Wong et al. (2023).
